The values below come from PubChem BioAssay AID488969 (Vanderbilt High Throughput Screening Facility, 2010).

The structures appear in SMILES notation. Over roughly 110,000 compounds, “z-score” has its median near -0.1; the highest 2% begin near 2. The list shows a part of the results.

For this test, the target named is Metabotropic glutamate receptor 8 (Rattus norvegicus) (UniProt P70579). Briefly: rat mGluR8 modulators via GIRK flux, primary screen, cell-based, thallium flux, HTS (AID 488969). The note with it: HEK293 rat mGluR8, GIRK (G protein-gated inwardly rectifying potassium channel) thallium flux, FluoZin2; at 10 µM; stronger effect = higher value; submaximal glutamate (EC20) added with thallium.
Chain of UniProt P70579 (P70579 whole entry, looked up): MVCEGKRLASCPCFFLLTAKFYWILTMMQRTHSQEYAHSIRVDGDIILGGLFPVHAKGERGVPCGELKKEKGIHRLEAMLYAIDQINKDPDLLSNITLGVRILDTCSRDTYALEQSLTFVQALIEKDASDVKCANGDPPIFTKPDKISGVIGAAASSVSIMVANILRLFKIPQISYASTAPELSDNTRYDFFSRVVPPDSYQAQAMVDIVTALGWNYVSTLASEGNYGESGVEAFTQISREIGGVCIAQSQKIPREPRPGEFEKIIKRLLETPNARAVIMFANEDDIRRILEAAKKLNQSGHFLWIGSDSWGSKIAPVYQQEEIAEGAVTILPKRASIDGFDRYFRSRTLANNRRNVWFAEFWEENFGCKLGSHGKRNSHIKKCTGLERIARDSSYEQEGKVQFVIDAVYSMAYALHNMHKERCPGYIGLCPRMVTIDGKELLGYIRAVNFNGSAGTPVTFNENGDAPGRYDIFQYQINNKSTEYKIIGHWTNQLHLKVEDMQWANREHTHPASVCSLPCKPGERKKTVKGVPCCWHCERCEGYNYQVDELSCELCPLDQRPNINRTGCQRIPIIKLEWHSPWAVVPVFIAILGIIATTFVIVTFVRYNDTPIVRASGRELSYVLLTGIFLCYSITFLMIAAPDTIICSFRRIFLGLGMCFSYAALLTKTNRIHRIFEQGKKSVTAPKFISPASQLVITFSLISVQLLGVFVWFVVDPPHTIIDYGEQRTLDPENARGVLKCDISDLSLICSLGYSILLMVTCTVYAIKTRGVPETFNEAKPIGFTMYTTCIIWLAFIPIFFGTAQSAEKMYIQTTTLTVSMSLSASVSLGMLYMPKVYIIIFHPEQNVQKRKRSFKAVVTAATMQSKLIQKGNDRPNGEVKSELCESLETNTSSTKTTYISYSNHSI
For the compound `Cc1cc(F)c(F)c(C(=O)NC2CC2)c1Cl`, the z-score was 0.0775.

`CCOc1ccc(CCN2C(=O)CCC2(C)C(=O)NC(C)CC)cc1OCC` (centres undefined): the z-score is -0.735.

Consider `O=S(=O)(Nc1cccc2cn[nH]c12)c1ccc(F)cc1`, for which the z-score was -0.00841.

For `COC(=O)c1ccc(C(=O)OC)c(NC(=O)N2c3ccccc3Sc3ccccc32)c1`, the z-score was -1.57.

The compound `O=C(CC1C(=O)N(c2ccccc2)C(=S)N1c1ccccc1)c1ccccc1` (centres undefined) gave a z-score of 0.466.

In the case of `COC(=O)C(C(C)=O)C1=C/C(=N\S(=O)(=O)c2ccc(C)cc2)c2ccccc2C1=O` (centres undefined), the z-score was -0.182.

For `COc1ccc(OC)c(NC(=O)COC(=O)/C=C/c2c(C)nn(C3CCS(=O)(=O)C3)c2Cl)c1` (centres undefined), the z-score was -0.29.

In turn, `CCn1c(SCC(=O)Nc2ccccc2)nnc1C1CCCCC1` had a z-score of 0.234.

Consider `CCOc1ccccc1N(C(=O)Cn1nnnc1-c1ccc(C)o1)C(CC)C(=O)NC(C)(C)C` (centres undefined), for which the z-score was -0.0165.

With `Cc1cc(/C=N/O)c(C)n1-c1ccccc1`, the z-score was -0.285.

Compound `COc1ccc(-c2c(C)n([O-])c3c([n+]2=O)CCCC3)cc1` gave a z-score of 0.18.

`O=C(CCn1c(=O)oc2ccccc21)N1CCN(C(c2ccccc2)c2ccccc2)CC1` returned a z-score of 0.228.

In the case of `Cc1cc(N/N=C/c2ccc(O)cc2O)nc(-c2ccccc2O)n1`, the z-score is -0.489.

In the case of `COc1ccc(N2CCN(C(=O)CSc3nnc4c(C)cc5cc(C)ccc5n34)CC2)cc1`, the z-score turned out to be 1.03.

As to `CC(=O)Nc1ccc(N2CCOCC2)c(C(=O)Nc2cccc(C)c2)c1`, the z-score is -0.639.

Consider `Cc1ccc(CNC(=O)CSc2ccc(-c3ccco3)nn2)cc1`, for which the z-score was found to be 0.58.

For the compound `CCCC(=O)NC(NC(=S)Nc1c(C)n(C)n(-c2ccccc2)c1=O)C(Cl)(Cl)Cl` (centres undefined), the z-score is -0.165.

`CCCc1ccc(-c2ccc(F)c(N)c2)nc1`: the z-score is -0.197.

With `O=C1OC(Cc2ccccn2)C(O)=C1C1=NCCCN1` (centres undefined), the z-score is -0.297.

As for `COc1ccccc1S(=O)(=O)Cc1ccc(C(=O)NCc2cccs2)o1`, the z-score worked out at 0.352.

As for `COC(=O)c1cccc(NC(=S)Nc2cccc(Cl)c2Cl)c1`, the z-score was determined as 2.5.

As to `Cc1cccc(C)c1Nc1nnc(SCC(=O)NC2CCS(=O)(=O)C2)s1` (centres undefined), the z-score was -0.0985.

Turning to `CCn1cc([N+](=O)[O-])c(C(=O)Nc2cc(C)on2)n1`, the z-score worked out at 0.0332.

For the compound `COc1ccc(NS(=O)(=O)c2cccc(N/C(=N\S(=O)(=O)c3ccccc3)c3ccc(F)cc3)c2)cc1`, the z-score was -1.31.

For the compound `COc1ccc2c(c1)C1C=CCC1C(c1cc3c(cc1Br)OCO3)N2` (centres undefined), the z-score was -0.214.

`Cc1cc(N2CC(=O)N(CCc3ccccc3)C(=O)C2)n2ncnc2n1` came in with a z-score of 0.186.

On to `CN(C)c1nc(Nc2ccc(Cl)cc2)nc(OCC#N)n1`, for which the z-score is -0.137.

Regarding `COC(=O)Nc1ccc2ncn(C)c(=O)c2c1`, the z-score is 0.00144.

For the compound `CCOC(=O)CC(NC(=O)C1c2ccccc2Oc2ccccc21)c1ccc(C)cc1` (centres undefined), the z-score was -0.0467.

For `CS(=O)(=O)N1CCc2cc(-c3csc(NC(=O)Cc4cccs4)n3)ccc21`, the z-score was -0.429.

As for `CCOC(=O)COc1c(-c2ccc(OC)cc2)oc2ccccc2c1=O`, the z-score is -0.598.

On to `COc1ccc(-c2cc3nc(C)c(CCC(=O)NCc4ccco4)c(C)n3n2)c(OC)c1`, for which the z-score is -1.03.

In turn, `Cc1nc(N)nc(Nc2ccc(Cl)cc2)c1Br` came in with a z-score of 0.259.

Regarding `COC(=O)c1nn(C23CC4CC(CC(C4)C2)C3)c2c1C(=O)N(c1ccc(Br)cc1)C2=O`, the z-score is -0.268.

As to `COc1ccc2ccc3c(c2c1)N=CC1(O3)N(C)c2ccccc2C1(C)C` (centres undefined), the z-score was determined as 0.592.

`COC(=O)N1CC(=O)N(OC)C1c1ccc(Cl)cc1Cl` (centres undefined) gave a z-score of 0.0679.

As to `CCCNC(=O)COc1ncnc2sc(C)c(C)c12`, the z-score was found to be 0.229.

`Cc1ccc(C)c(NC(=O)CCN2CC(C)OC(C)C2)c1` (centres undefined) gave a z-score of 0.575.

For the compound `CCOC(=O)N1CCN(Cc2nc3c(c(=O)n(C)c(=O)n3C)n2Cc2ccc(F)cc2)CC1`, the z-score was -0.117.

Turning to `CCOC(=O)N1CCC(NC(=O)c2cccc3c2C(=O)N(c2ccc(OC)cc2)C3)CC1`, the z-score is -1.84.

`O=C(c1ccc(S(=O)(=O)N2CCOCC2)cc1)N1CCCc2ccccc21` registered a z-score of 0.144.

Consider `Cn1c(N/N=C/c2ccccc2)nc2sc3c(c2c1=O)CCC3`, for which the z-score was 1.3.

With `CN(C)c1ccc(/C=C/c2nnnn2-c2ccccc2)cc1`, the z-score was -0.556.

Turning to `O=C(Nc1c(F)c(F)c(F)c(F)c1F)NC1CCCCC1`, the z-score worked out at 0.0762.

As to `CCOc1c(CNCCN2CCOCC2)cccc1OC`, the z-score is -0.0524.

As to `CN1CCN(c2nc(-c3ccccn3)nc3ccccc23)CC1`, the z-score came to 0.153.

As for `CCCc1ccc(C2C3=C(CC(C)(C)CC3=O)NC3=C2C(=O)c2ccccc23)cc1` (centres undefined), the z-score came out at 0.441.

In the case of `C=CCn1c(-c2ccc(OC)c(OC)c2)cs/c1=N\c1ccccn1`, the z-score was found to be 0.586.

As for `COc1cccc(CC(NC(C)=O)C(=O)NC2CCN(c3nnnn3-c3ccccc3)CC2)c1` (centres undefined), the z-score was -0.912.

Turning to `COc1cc(NC(=O)c2ccc(COc3ccccc3Br)o2)cc(OC)c1OC`, the z-score is -0.932.

Compound `O=C(Cn1c(=O)c2sccc2n(Cc2ccc([N+](=O)[O-])cc2)c1=O)NCCc1ccccc1` gave a z-score of 0.132.

As for `COc1ccc(/C=N/NC(=O)CSCC(=O)Nc2ccccc2)cc1OC`, the z-score was -0.141.

In turn, `COc1ccccc1C(=O)N1CCN(C(=O)c2ccncc2)CC1` displayed a z-score of 0.136.

Consider `N#C/C(=C1/CCCN1)c1ccccn1`, for which the z-score was -0.173.

In turn, `O=C(c1ccc(Cn2cc(Br)cn2)o1)N1N=C(C(F)F)CC1(O)C(F)F` (centres undefined) showed a z-score of 0.214.

On to `CN(Cc1ccccc1)c1nc2c(c(=O)[nH]c(=O)n2C)n1CCOc1ccccc1`, for which the z-score is -0.489.

In the case of `O=C(/C=C/c1c(F)cccc1Cl)c1ccc(F)cc1`, the z-score was 0.00886.

With `COc1cc(OC)cc(-c2nnc(SCC(=O)N(C(C)C)C(C)C)o2)c1`, the z-score is -0.176.

`COc1ccccc1NC(=O)C1CCCCC1`: the z-score turned out to be 0.254.

For the compound `O=C(CCCCCn1c(=S)[nH]c2cc3c(cc2c1=O)OCO3)N1CCN(C2CCCCC2)CC1`, the z-score is -1.45.

In the case of `COc1ccc(OC)c(NC(=O)C2C3CC4OC(=O)C2C4C3)c1` (centres undefined), the z-score was -0.324.

`O=C1c2ccccc2C(=O)N1CCSC(=S)N1CCOCC1`: the z-score is -0.252.

On to `Cc1cc(CN2C(=O)c3ccccc3C2=O)on1`, for which the z-score is -0.146.

For `Cc1ccc(CCNS(=O)(=O)c2ccc(C)cc2)cc1`, the z-score was -0.791.

Turning to `O=C(CNC(=O)c1ccc2ccccc2c1)OCC(=O)N1CCN(S(=O)(=O)c2ccc3ccccc3c2)CC1`, the z-score was -0.263.

Consider `CS(=O)(=O)N1CCN(C/C=C/c2ccccc2)CC1`, for which the z-score is -0.0638.

On to `CCCC(=O)Nc1nnc(CCOC)s1`, for which the z-score is -0.191.

Take `COc1ccc(OC)c2[nH]c(=O)c(CCNC(=O)c3ccc(S(=O)(=O)N(C)C)cc3)cc12`: the z-score was 0.354.

For the compound `N#C/C(=C/c1ccc(-c2ccc(S(N)(=O)=O)cc2)o1)C(=O)Nc1ccccc1`, the z-score is -0.292.

In the case of `CC(NC(=O)c1ccccc1NC(=O)c1ccco1)C(=O)O` (centres undefined), the z-score was 0.586.

Take `CCC1CSC(Nc2ccc(C(=O)/C=C/c3ccc(Oc4ccccc4)cc3)cc2)=N1` (centres undefined): the z-score worked out at 0.0568.

With `CCCCCc1nc2sc3c(c2c(=O)n1N)CCC3`, the z-score is -0.252.

`O=C1c2ccccc2C(=O)N1CCCCN(C(=O)c1cc([N+](=O)[O-])cc([N+](=O)[O-])c1)c1ccc(Cl)cc1`: the z-score amounted to 0.128.

`FC(F)(F)c1cc(Oc2ccccc2Cl)nc(-c2ccccn2)n1`: the z-score is -0.561.

As to `COc1ccc(S(=O)(=O)N(Cc2nc3ccccc3c(=O)[nH]2)C2CCCC2)cc1`, the z-score was 2.49.

`CCOC(=O)c1ccccc1NC(=O)c1c(F)c(F)c(F)c(F)c1F` gave a z-score of 0.361.

As to `COc1ccc(OC)c(-c2csc(NC(=O)CSc3ccc(Br)cc3)n2)c1`, the z-score was -0.0826.

Consider `O=C(CSc1nnnn1-c1ccc(F)cc1)NC1CCCCC1`, for which the z-score was -0.158.

Compound `Nc1ccc(Cl)c(-c2nc3ncccc3o2)c1` had a z-score of 0.714.

Regarding `O=C(COC(=O)c1ccc(Cl)c(Cl)c1)Nc1cccnc1Cl`, the z-score was -0.19.

Consider `Cc1ccc(C(=O)NC(=C(Cl)Cl)S(=O)(=O)c2ccc(C)cc2)cc1`, for which the z-score is -0.083.

Take `CCCC(=O)Nc1cc2c(cc1C(=O)c1ccccc1)OCCO2`: the z-score amounted to 0.117.

On to `c1ccc(COc2cccc(CN3CCN(c4ccccn4)CC3)c2)cc1`, for which the z-score was -0.187.

`Cc1ccc2nc(C)cc(Nc3ccc4c(c3)OCCO4)c2c1` showed a z-score of 1.52.

In turn, `O=C(COC(=O)CCSc1ccc(Cl)cc1)NCCc1ccccc1` had a z-score of 0.00426.

For the compound `Cc1[nH]c(=O)[nH]c(=O)c1/C=C/C(=O)OCC(C)C`, the z-score was found to be 0.104.

Take `O=C(O)CC(C(=O)OCC1CCCO1)N1CCOCC1` (centres undefined): the z-score stood at 1.13.

On to `Cn1c(SCC(=O)N2c3ccccc3Sc3ccccc32)nc2ccccc21`, for which the z-score was -0.00612.

As to `CC12CNCC(C)(CN(C(c3ccccc3)c3ccccc3)C1)C2`, the z-score was found to be 1.25.

In turn, `CNC(=O)/C(=C\c1ccc([N+](=O)[O-])cc1)NC(C)=O` came in with a z-score of 0.421.

As for `Cc1[nH]c2ccccc2c1N=Nc1cccc(C(=O)O)c1`, the z-score came out at 0.00376.

On to `Cc1nc(N2CCN(S(=O)(=O)c3ccccc3)CC2)c2c3c(sc2n1)CC(C)CC3` (centres undefined), for which the z-score was -0.0532.

Compound `CC1(C)CC(CC(=O)O)(c2ccccc2)CCO1` (centres undefined) came in with a z-score of 0.215.

In turn, `NC(=O)N1CCCC1C(=O)Nc1ccc(Cl)c(Cl)c1` (centres undefined) showed a z-score of 0.0276.

Take `O=S(=O)(c1ccc2ccccc2c1)N1CCN(S(=O)(=O)N2CCCCC2)CC1`: the z-score was found to be 0.336.

In the case of `CCOc1ccccc1NC(=O)c1ccc(NC(=O)c2ccco2)cc1`, the z-score was 0.535.

For `Cc1ccc(/C=N/NC(=O)CSc2nc3ccccc3c(=O)n2-c2ccccc2C)s1`, the z-score was -0.0572.

Turning to `O=C(CN1CCN(C(=O)c2cccs2)CC1)Nc1ccc(Br)cc1`, the z-score is -1.01.

Turning to `CCc1ccc2c(c1)/C(=N/N(C)C(=S)NC)C(=O)N2`, the z-score is -0.0814.

`Cc1ccc(SCc2cc(=O)[nH]c(N3CCN(Cc4ccccc4)CC3)n2)cc1` returned a z-score of 0.288.

Turning to `COc1cc(/C=N/N(C)c2ccccc2)cc(Cl)c1O`, the z-score was -0.687.

Compound `O=C(CN1CCN(c2ccccc2)CC1)Nc1nccs1` showed a z-score of 0.793.

As for `Cc1c(Cl)cccc1NC(=O)Nc1ccc(C(=O)N2CCCC2)cc1`, the z-score was -0.14.

For the compound `CCn1nnnc1SCC(=O)N1CCCc2ccccc21`, the z-score is -0.233.

`CC(Oc1ccccc1F)C(=O)/C=C/N(C)C` (centres undefined) yielded a z-score of 0.324.

In the case of `O=C(CSc1ccsc1[N+](=O)[O-])N1CCN(c2ccc(Cl)cc2)CC1`, the z-score is -0.448.

Turning to `Cc1onc(-c2ccccc2)c1C(=O)Nc1nnc(COc2ccc(Cl)cc2)s1`, the z-score was 0.756.

As to `CCOC(=O)c1ccc(NC(=O)CN2C(=O)C(=O)N(CC(C)C)C2=O)cc1`, the z-score is -0.346.

For `CCOC(=O)c1c(N2C(=O)Nc3ccccc3N2O)sc2c1CCCC2`, the z-score was -0.5.
